Measurements reported in paper PMC4207660, “Identification and Characterization of Hundreds of Potent and Selective Inhibitors of Trypanosoma brucei Growth from a Kinase-Targeted Library Screening Campaign” (PLoS Neglected Tropical Diseases, 2014).

Key:
[1] = tested on: T. brucei; type: cell-based, Trypanosoma brucei brucei
Experimental: 100 nL per well from master plates were stamped in final assay black, clear-bottom 384-well Greiner microplates, including controls of 0% response (DMSO) and 100% response (2 μM Pentamidine): the final assay concentration was 20 μM. Plates containing DMSO were included randomly in the assay, to assess quality through all process. […] After 18 hours incubation, plates were centrifuged in a centrifuge (Beckman Coulter) for 5 min at 500 g, to sediment the cells, supernatant was aspirated with a Cybio-Well dispenser (Cybio), and 40 μL/well of fresh prewarmed HMI-9 were added: this cycle was performed three times. After the last cycle, 10 μL/well of cells suspension were aspirated by Cybio-Well equipment and dispensed over 40 μL of fresh prewarmed HMI-9 in “recovery plates”: calculated maximal residual concentration was 32 nM. […] Assay […] quality was determined by Z' score and validated data set were analyzed with ActivityBase software. As previous described percentage of inhibition was calculate for each concentration based on controls. A 4-parameter equation was used to fit the dose-response curves and pEC50 determination. The potential effect of residual drug remaining after washes was evaluated by performing the same protocol with standard trypanocidal drugs (such as suramin and diminazene) and negligible effect was observed. […]

[2] = tested on: T. brucei brucei parasites (Lister 427 strain); test: Dose response growth inhibition assay (resazurin, 72 h); type: cell-based; conditions: Trypanosoma brucei, 72 h; read-out: pEC50 (converted)
Experimental: Greiner sterile black clear bottom 384-well assay plates were pre-dispensing with 200 nL of compound in each well, from master plates at 1 mM (100% DMSO) containing selection from the GSK compound collection. Controls of 0% response (control 1, 200 nL of 100%DMSO) and 100% response (control 2, 200 nL of 1 mM pentamidine) were included in each assay plate in columns 6 and 18, respectively. Plates containing 200 nL of 100% DMSO were included randomly in the assay, to assess quality through all process. […] After this period, 10 µL of 200 µM resazurin solution in prewarmed HMI-9 were added to each well, and plates were allowed to incubate 2 hours more prior fluorescence reading in a Wallac EnVision Multilabel Plate Reader (Perkin-Elmer). Raw fluorescent data from the Envision plate reader were uploaded into GSK HTS database (ActivityBase). Activity of each well was normalized as a percentage of inhibition per-plate basis using the following equation: [drawing 1]
For dose-response experiments, serial compound dilutions of selected hits from the primary campaign were plotted against compound concentration. Dose response master plates were prepared by 3-fold dilutions (starting with 10 mM DMSO stock solutions), providing 11 concentrations. From these master plates, 200 nL per well was stamped in final assay plates, including the same controls describe in the primary single shot assay. Compounds were dispensed as serial dilution curve format, with 11 points at 3-fold dilution and 40 µM as starting top concentration (n = 2). Growth inhibition assay was performed as described in previous assay.
A 4-parameter equation describing a sigmoidal dose-response curve was then fitted with an adjustable baseline using ActivityBase XE Runner software. Fitting of dose-response curves and EC50 determination were normalized as percentage of inhibition based on controls. The curve-fit model was based on a 4-parameter equation: [drawing 2]
Trypanosome cell culture. […]

[3] = ChromlogD assay; conditions: for logD: reversed-phase HPLC column (Luna C18 (2)), pH 7.4
Experimental: The Chromatographic Hydrophobicity Index (CHI)[22] values were measured using reversed phase HPLC column (Luna C18 (2), Phenomenex, UK) with a fast acetonitrile gradient at starting mobile phase of pH = 7.4. CHI values are derived directly from the gradient retention times by using a calibration line obtained for standard compounds. The CHI value approximates to the volume % organic concentration when the compound elutes. […] The average error of the assay is ±3 CHI unit or ±0.25 ChromlogD.

[4] = tested on: HepG2 cells; test: Cytotoxicity assay (Cell Titer Glo, 48 h); conditions: HepG2 cells, 48 h
Experimental: This assay was used as selectivity assay, and selected hits from the primary were test in dose response concentration against HepG2 in order to identify the level of host cell cytotoxicity. Dose response starting at 10 mM and with 3-fold dilutions for 11 points, were made in 1,536-well master plates. 50 nL per well from them were stamped in final assay plates. The human biological samples were sourced ethically and their research use was in accord with the terms of informed consent.
Cell density was adjusted to 60,000 cells/mL as working concentration in prewarmed Eagle's MEM medium. Seeding density was be checked to ensure that new monolayers are not more than ∼ 50% confluent at the time of seeding (typically 3,000 cells per well), before completing preparation of plates. […] Viability was determined by Cell Titer Glo Kit (Promega) according to manufacturer's instructions: briefly, reconstituted Cell Titer Buffer was equilibrated to room temperature prior its use and 5 µL per well were dispensed with a Multidrop Combi Reagent Dispenser. Contents were mixed on a plate orbital shaker and incubated for 10 min at room temperature, to allow the signal to stabilize before luminescence reading on ViewLux Plate Reader (Perkin-Elmer).
Raw Luminescence data from the ViewLux reader were uploaded into GSK HTS database (ActivityBase). […]

SMILES | Cidal? [1] | EC50 [2] | logD [3] | pTC50 [4] | PFI [3]
Clc1ccc(C2c3ccccc3Cc3nncn32)cc1 (stereo not drawn) [NEU-0001097] | N (No) | 457 nM | 5.35 | – | –
CN[C@@H]1C[C@H]2O[C@@](C)([C@@H]1OC)n1c3ccccc3c3c4c(c5c6ccccc6n2c5c31)C(=O)NC4 [NEU-0001095] | – | 9.12 nM | – | 5.29 | –
NCC(Cc1ccccc1)C(=O)Nc1ncc(-c2c[nH]c3ncccc23)s1 (stereo not drawn) [NEU-0001239] | – | – | – | – | 6.23
C(=C\c1c(-c2ccccc2)nc2sccn12)/c1ccn[nH]1 [NEU-0001096] | N (No) | 741 nM | 4.98 | – | –
